Data from PubChem BioAssay (NCI).
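Five concentrations, 48 hours, 96-well plates. At the GI50, growth is halved. TGI denotes the concentration required for complete inhibition of growth.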

Test system: NCI-H322M lung
Test: NCI tumour cell line growth inhibition, 48 h

Compound | GI50 [µM] | TGI [µM]
O=C(CCCCCCNC(=O)C(O)(O)C(F)(F)F)Nc1ccc(Br)cc1 | 5.75 | > 33
CC(=O)OC[C@]12CC[C@@H](C(=O)/C=C/c3cccnc3)[C@@H]1[C@H]1CC[C@@H]3[C@@]4(C)CC[C@H](OC(C)=O)C(C)(C)[C@@H]4CC[C@@]3(C)[C@]1(C)CC2 | 2.51 | 6.7
CC[C@]12C=CCN3CC[C@]4(C(=C(C(=O)OC)C1)Nc1cc5c(cc14)[C@@H]1[C@H](O5)[C@@H](O)[C@@]4(CC)CC(C(=O)OC)=C5Nc6cc(OC)ccc6[C@@]56CCN1[C@@H]46)[C@@H]32 | 0.264 | 7.18
